Assay results: PubChem BioAssay AID1030 (National Center for Advancing Translational Sciences (NCATS), 2008)
Out of some 220,000 compounds screened, about 16,000 (7.3%) were called active. The inconclusive results got no clear call from the source; some entries with a clear call stand among them for comparison. The call rests on the fitted dose curve; in most records, active means well fitted inhibition curve with a large enough effect (not every such curve was filed as active); inconclusive means small, poorly fitted or top-dose-only effect, or another doubt; inactive means no such curve, though single readings can be large or run the other way. Potencies of inconclusive entries are left out as doubtful fits.
Potency means the concentration at half of the fitted maximal effect; tags describe the fitted curve by direction and shape.
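Wherever activity, negative = inhibition is given: plate controls were no enzyme wells and a reference inhibitor.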

Each molecule was assayed against Aldehyde dehydrogenase 1A1 (Homo sapiens) (UniProt P00352) (assay: qHTS Assay for Inhibitors of Aldehyde Dehydrogenase 1 (ALDH1A1)). Settings: Purified ALDH1A1, NADH fluorescence, propionaldehyde substrate; series mostly up to 75.3 µM.
Chain of UniProt P00352 (P00352 whole entry, looked up): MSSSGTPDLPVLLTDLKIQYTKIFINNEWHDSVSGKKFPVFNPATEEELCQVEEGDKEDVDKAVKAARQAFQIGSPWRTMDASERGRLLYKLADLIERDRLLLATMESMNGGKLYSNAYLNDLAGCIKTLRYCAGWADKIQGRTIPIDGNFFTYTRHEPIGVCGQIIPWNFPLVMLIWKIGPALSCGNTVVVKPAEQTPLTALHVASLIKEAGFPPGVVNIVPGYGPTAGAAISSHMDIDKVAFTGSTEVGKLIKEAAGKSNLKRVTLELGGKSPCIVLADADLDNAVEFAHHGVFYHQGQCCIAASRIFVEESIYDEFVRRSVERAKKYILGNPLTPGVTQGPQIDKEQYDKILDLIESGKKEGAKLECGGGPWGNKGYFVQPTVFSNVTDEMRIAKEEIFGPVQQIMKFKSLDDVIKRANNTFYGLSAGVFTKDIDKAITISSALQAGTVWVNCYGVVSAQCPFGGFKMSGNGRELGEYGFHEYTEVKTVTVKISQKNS
With `CCCn1c(-c2ccc(F)cc2)n[nH]c1=S` the Potency was inconclusive [inhibitor, partial curve]. For `O=[N+]([O-])c1ccccc1-c1ccc(C(=S)N2CCCCC2)o1`, the Potency was active: 22.4 µM. `CN(C)C(=O)Cn1c(SCC(=O)Nc2ccc3c(c2)OCO3)nc2ccccc21` was tested, and the Potency was inconclusive [inhibitor, single point]. `COc1ccc(C(=O)N2CCC3(CCCN(c4ccccn4)C3)CC2)cc1` was tested, and the Potency was inconclusive [inhibitor, single point]. In the case of `Cc1ccc(C)n1-c1sccc1C(=O)O`, the Potency is reported as “inactive”. For `CNC(=O)Nc1ccc2snnc2c1`, the Potency was inconclusive [inhibitor, single point]. In the case of `COc1ccc(-n2[nH]c(C)cc2=O)cc1`, the Potency is reported as active: 3.16 µM. With `Cc1occc1C(=O)N/N=C/c1sc(N2CCOCC2)nc1-c1ccccc1` the Potency was inconclusive [inhibitor, single point]. For `CCOC(=O)CCN1C(=O)[C@H]2[C@H]3[C@H](O)[C@H](O)C/C(=N/O[C@@H]4O[C@@H](COC(C)=O)[C@@H](OC(C)=O)[C@@H](OC(C)=O)[C@H]4OC(C)=O)[C@@H]3CC[C@@H]2C1=O`, the activity, negative = inhibition was inactive: -0.958% [at 13.5 µM]. With `CCNc1nc(NC(C)C)nc(N(C#N)CCOc2ccccc2)n1` the Potency was “inactive”. `C(=C\c1ccccc1)/CSc1nnc(-c2cccnc2)n1Cc1ccco1` was tested, and the Potency was inconclusive [inhibitor, partial curve]. In the case of `C=C1C(N)CC2CC1C2(C)C` (configuration not stated), the Potency is reported as “inactive”. For `CCOc1ccc(NC2c3ccccc3C(=O)N2Cc2ccco2)cc1` (configuration not stated), the Potency was active: 5.62 µM. In the case of `O=C(O)/C=C\C(=O)Nc1cccc(NC(=O)c2ccccc2)c1`, the Potency is reported as inconclusive [inhibitor, single point]. In the case of `CCOc1cc(NC(=S)Nc2ccccc2)c(OCC)cc1NC(=O)c1ccc(OC)cc1`, the Potency is reported as active: 22.4 µM. `COCCn1nnnc1CN(CCc1ccccc1)Cc1cc2ccc(C)cc2[nH]c1=O` was tested, and the Potency was active: 4.47 µM. `O=C1N/C(=C/c2ccc(N3CCOCC3)o2)C(=O)N1c1cccc(Cl)c1` was tested, and the Potency was active: 17.8 µM. `Cc1ccc(NC(=O)c2ccc(Cl)cc2[N+](=O)[O-])nc1` was tested, and the Potency was “inactive”. With `CC(C)(C)c1ccc(/C=N/NC(=O)c2ccccn2)cc1` the Potency was “inactive”. In the case of `CCOC(=O)CSc1nc(-c2ccncc2)ccc1C#N`, the Potency is reported as inconclusive [inhibitor, single point]. `CN=C1SC(CC(=O)Nc2sc3c(c2C#N)CCCC3)C(=O)N1C` (configuration not stated) was tested, and the Potency was inconclusive [inhibitor, single point]. In the case of `CCCCn1c(SCC(=O)N2CCCCC2)nc2cc(S(N)(=O)=O)ccc21`, the Potency is reported as inconclusive [inhibitor, partial curve]. `CC(C)N1CCN(Cc2cccn2-c2nccs2)CC1CCO` (configuration not stated) was tested, and the Potency was inconclusive [inhibitor, single point]. For `CCN=C1S/C(=C\c2cn(CC)c3ccccc23)C(=O)N1CC`, the Potency was inconclusive [inhibitor, single point]. `OCCN1CCN(C(=S)c2ccc(Cl)c(Cl)c2)CC1` was tested, and the Potency was inconclusive [inhibitor, partial curve]. `COC(=O)c1c(NC(=O)c2c(-c3ccccc3Cl)noc2C)sc2c1CCC2` was tested, and the Potency was inconclusive [inhibitor, partial curve]. For `Cc1ccc2cc3cc(C(=O)NCCCN4CCCCCC4)oc3nc2c1`, the Potency was inconclusive [inhibitor, partial curve]. With `CC(C)N1C(=O)S/C(=C/c2ccc3c(c2)n(C)c(=O)n3C)C1=O` the Potency was active: 8.91 µM. In the case of `Cc1cccc(N2CCN(c3ccc(C(N)=O)cc3[N+](=O)[O-])CC2)c1C`, the Potency is reported as “inactive”. For `Cn1c(SCC(=O)c2ccc3c(c2)OCCO3)nnc1C1CC1`, the Potency was active: 20 µM. With `CC(C)CNC(=O)C(=O)NCc1ccccc1` the Potency was inconclusive [inhibitor, full curve]. In the case of `O=C(Nc1ccn(Cc2ccccc2)n1)c1ccc2c(c1)OCO2`, the Potency is reported as inconclusive [inhibitor, single point]. With `CCOc1ccc(Oc2ccc(-c3nnc(-c4ccccc4)o3)cc2[N+](=O)[O-])cc1` the Potency was inconclusive [inhibitor, single point]. For `COc1ccc2c(c1)CCc1c(C(=O)NC3CCCCC3)noc1-2`, the Potency was inconclusive [inhibitor, single point]. `Cc1ccc(S(=O)(=O)NCCCC(=O)O)cc1` was tested, and the Potency was “inactive”. `CC(C)N(Cc1nc(-c2ccccc2)no1)C(=O)COc1ccccc1` was tested, and the Potency was inconclusive [inhibitor, single point]. For `CCN1C(=O)C(O)(CC(=O)C(C)(C)C)c2cc(Br)ccc21` (configuration not stated), the Potency was inconclusive [inhibitor, single point]. In the case of `CCCn1nc(C(=O)NC2CCCc3ccccc32)c2ccccc2c1=O` (configuration not stated), the Potency is reported as inconclusive [inhibitor, partial curve]. With `Cc1ccccc1-c1nc(N2CCOCC2)c2ccccc2n1` the Potency was inconclusive [inhibitor, single point]. In the case of `COc1ccc2c(c1)CC(C1(O)C(=O)N(C)c3ccccc31)C2=O` (configuration not stated), the Potency is reported as inconclusive [inhibitor, single point]. In the case of `NNc1cc([N+](=O)[O-])cc2c1C(=O)N(Cc1ccccc1)S2=O` (configuration not stated), the Potency is reported as active: 14.1 µM. With `COc1ccc(-c2nc3cnc(N4CCN(C)CC4)nc3n(Cc3ccc(F)cc3)c2=O)cc1` the Potency was inconclusive [inhibitor, partial curve]. `O=c1c2c(-c3ccco3)csc2nc(SCc2cn3cccnc3n2)n1-c1ccccc1` was tested, and the Potency was inconclusive [inhibitor, partial curve]. For `COc1ccc(S(=O)(=O)Nc2c(C)c(C)cc3c2ncn3C)cc1`, the Potency was inconclusive [inhibitor, single point]. In the case of `CSCCC(NS(=O)(=O)c1ccc2c(c1)OCCO2)C(=O)NCCc1ccccn1` (configuration not stated), the Potency is reported as “inactive”. In the case of `O=C(Nc1cccc(S(=O)(=O)C(F)F)c1)c1ccc(S(=O)(=O)N2CCCCC2)cc1`, the Potency is reported as inconclusive [inhibitor, single point]. `O=c1cc(N2CCN(Cc3ccccc3)CC2)[nH]c(=O)n1-c1ccc(Br)cc1` was tested, and the Potency was inconclusive [inhibitor, single point]. For `CN1CCN(CCCNC(=O)c2ccc(/C=C3/Sc4ccccc4N(Cc4cccc(Cl)c4)C3=O)cc2)CC1`, the Potency was “inactive”. With `Cc1cccc(N2CC(C(=O)Nc3ccc(S(=O)(=O)N4CCOCC4)cc3)CC2=O)c1` (configuration not stated) the Potency was inconclusive [inhibitor, single point]. In the case of `COc1ccc(N2CCN(C(=O)CSc3nnc(-c4ccco4)n3C)CC2)cc1`, the Potency is reported as inconclusive [inhibitor, single point]. In the case of `CCC(C)NC(=O)C1CCC(=O)N(c2ccc3c(c2)OCO3)C1c1ccc(OC)cc1` (configuration not stated), the Potency is reported as active: 6.31 µM. In the case of `N#Cc1c(NCc2ccccc2)ccnc1NCc1cccnc1`, the Potency is reported as “inactive”. In the case of `CCCc1c(C(=O)Nc2ccc(N3CCOCC3)cc2)cnn1-c1ccccc1`, the Potency is reported as active: 3.16 µM. With `O=c1c([N+](=O)[O-])c[nH]c2ccccc12` the Potency was “inactive”. In the case of `O=S(=O)(O)c1cc(N=[N+]([O-])c2cc(S(=O)(=O)O)c3ccccc3c2)cc2ccccc12`, the Potency is reported as inconclusive [inhibitor, single point]. In the case of `COC(=O)C1=C(C(=O)OC)[C@@H]2Nc3ccccc3[C@@]23C[C@@H](C(=O)OC)N(S(=O)(=O)c2ccc(C#N)cc2)C3=N1`, the Potency is reported as inconclusive [inhibitor, single point]. `COC(=O)c1ccc(C)c(NC(=O)Cc2coc3cc(OC)ccc23)c1` was tested, and the Potency was inconclusive [inhibitor, partial curve]. In the case of `CCc1nc2scc(-c3cccs3)c2c(=O)o1`, the Potency is reported as inconclusive [inhibitor, partial curve]. With `O=C(O)CCc1nc2ccccc2c(=O)[nH]1` the Potency was “inactive”. `CC(=O)Cc1nsc(NC(=O)c2ccc(-c3cccc(C(F)(F)F)c3)o2)n1` was tested, and the Potency was inconclusive [inhibitor, single point]. For `COc1ccc(CNC(=O)COC(=O)c2ccc(Br)cc2)cc1`, the Potency was “inactive”. With `O=C(COc1ccc(Cl)cc1Cl)Nc1ccccc1NS(=O)(=O)c1cccs1` the Potency was inconclusive [inhibitor, single point]. `CCOC(=O)C1CCN(Cc2cnc(Oc3ccc(C(C)(C)C)cc3)s2)CC1` was tested, and the Potency was inconclusive [inhibitor, single point]. In the case of `O=C(CN1CCN(C(=O)N2CCOCC2)CC1)Nc1ccc(Br)cc1`, the Potency is reported as active: 17.8 µM. For `COc1ccc(CCNS(=O)(=O)c2ccc(OC)cc2)cc1`, the Potency was inconclusive [inhibitor, partial curve]. In the case of `Cc1ccc(S(=O)(=O)NCc2c(-c3ccccc3)noc2C)cc1`, the Potency is reported as active: 3.98 µM. `COC(=O)c1sc(S(=O)(=O)NCc2cccs2)c(C(=O)OC)c1C` was tested, and the Potency was active: 14.1 µM. With `O=C(O)c1ccc(CSc2nnc(COc3ccc(Cl)cc3Cl)o2)cc1` the Potency was inconclusive [inhibitor, single point]. In the case of `CC(C)=CCc1c(O)cc2oc(C)cc(=O)c2c1O`, the Potency is reported as “inactive”. With `Cc1c(-c2ccc(Cl)cc2)oc(=O)c2c(N)n(-c3ccccc3)nc12` the Potency was inconclusive [inhibitor, single point]. For `COc1ccc(-c2cnc3ncnn3c2N)cc1`, the Potency was “inactive”. In the case of `Cc1nc(NCCN)c(C#N)c2c1COC(C)(C)C2`, the Potency is reported as inconclusive [inhibitor, single point].
